Assay results as given in the supplement of paper PMC12423691.
The other results are listed elsewhere or left out. Binding of human transcription factors and regulators to the viral nucleoprotein by AlphaScreen, crude cell-free proteins, amounts not normalised, one pass. Fold of the Venus control; higher = more signal. No active / inactive call. Single-pass screen; sequences are the whole Swiss-Prot entries looked up by name.

B1: ZNF660, Q6AZW8 (protein)
chain: MRRKTRNFKHKTVKDNKVLTEGSDQESEKDNSQCCDPATNERVQAEKRQYVCTECGKAFSQSANLTVHERIHTGEKPYKCKECGKAFSHSSNLVVHRRIHTGLKPYTCSECGKSFSGKSHLIRHQGIHSGEKTYECKECGKAFSRSSGLISHHRVHTGEKPYSCIECGKAFSRSSNLTQHQRMHRGKKVYKCKECGKTCGSNTKIMDHQRIHTGEKPYECDECGKTFILRKTLNEHQRLHRREKPYKCNECGKAFTSNRNLVDHQRVHTGEKPYKCNECGKTFRQTSQVILHLRTHTKEKPYKCSECGKAYRYSSQLIQHQRKHNEEKETS
B2: TFDP1, Q14186 (protein)
chain: MAKDAGLIEANGELKVFIDQNLSPGKGVVSLVAVHPSTVNPLGKQLLPKTFGQSNVNIAQQVVIGTPQRPAASNTLVVGSPHTPSTHFASQNQPSDSSPWSAGKRNRKGEKNGKGLRHFSMKVCEKVQRKGTTSYNEVADELVAEFSAADNHILPNESAYDQKNIRRRVYDALNVLMAMNIISKEKKEIKWIGLPTNSAQECQNLEVERQRRLERIKQKQSQLQELILQQIAFKNLVQRNRHAEQQASRPPPPNSVIHLPFIIVNTSKKTVIDCSISNDKFEYLFNFDNTFEIHDDIEVLKRMGMACGLESGSCSAEDLKMARSLVPKALEPYVTEMAQGTVGGVFITTAGSTSNGTRFSASDLTNGADGMLATSSNGSQYSGSRVETPVSYVGEDDEEDDDFNENDEDD
B3: FOSL2, P15408 (protein)
chain: MYQDYPGNFDTSSRGSSGSPAHAESYSSGGGGQQKFRVDMPGSGSAFIPTINAITTSQDLQWMVQPTVITSMSNPYPRSHPYSPLPGLASVPGHMALPRPGVIKTIGTTVGRRRRDEQLSPEEEEKRRIRRERNKLAAAKCRNRRRELTEKLQAETEELEEEKSGLQKEIAELQKEKEKLEFMLVAHGPVCKISPEERRSPPAPGLQPMRSGGGSVGAVVVKQEPLEEDSPSSSSAGLDKAQRSVIKPISIAGGFYGEEPLHTPIVVTSTPAVTPGTSNLVFTYPSVLEQESPASPSESCSKAHRRSSSSGDQSSDSLNSPTLLAL
B4: TBX5, Q99593 (protein)
chain: MADADEGFGLAHTPLEPDAKDLPCDSKPESALGAPSKSPSSPQAAFTQQGMEGIKVFLHERELWLKFHEVGTEMIITKAGRRMFPSYKVKVTGLNPKTKYILLMDIVPADDHRYKFADNKWSVTGKAEPAMPGRLYVHPDSPATGAHWMRQLVSFQKLKLTNNHLDPFGHIILNSMHKYQPRLHIVKADENNGFGSKNTAFCTHVFPETAFIAVTSYQNHKITQLKIENNPFAKGFRGSDDMELHRMSRMQSKEYPVVPRSTVRQKVASNHSPFSSESRALSTSSNLGSQYQCENGVSGPSQDLLPPPNPYPLPQEHSQIYHCTKRKEEECSTTDHPYKKPYMETSPSEEDSFYRSSYPQQQGLGASYRTESAQRQACMYASSAPPSEPVPSLEDISCNTWPSMPSYSSCTVTTVQPMDRLPYQHFSAHFTSGPLVPRLAGMANHGSPQLGEGMFQHQTSVAHQPVVRQCGPQTGLQSPGTLQPPEFLYSHGVPRTLSPHQYHSVHGVGMVPEWSDNS
B5: BATF2, Q8N1L9 (protein)
chain: MHLCGGNGLLTQTDPKEQQRQLKKQKNRAAAQRSRQKHTDKADALHQQHESLEKDNLALRKEIQSLQAELAWWSRTLHVHERLCPMDCASCSAPGLLGCWDQAEGLLGPGPQGQHGCREQLELFQTPGSCYPAQPLSPGPQPHDSPSLLQCPLPSLSLGPAVVAEPPVQLSPSPLLFASHTGSSLQGSSSKLSALQPSLTAQTAPPQPLELEHPTRGKLGSSPDNPSSALGLARLQSREHKPALSAATWQGLVVDPSPHPLLAFPLLSSAQVHF
B6: DLX4, Q92988 (protein)
chain: MTSLPCPLPGRDASKAVFPDLAPVPSVAAAYPLGLSPTTAASPNLSYSRPYGHLLSYPYTEPANPGDSYLSCQQPAALSQPLCGPAEHPQELEADSEKPRLSPEPSERRPQAPAKKLRKPRTIYSSLQLQHLNQRFQHTQYLALPERAQLAAQLGLTQTQVKIWFQNKRSKYKKLLKQNSGGQEGDFPGRTFSVSPCSPPLPSLWDLPKAGTLPTSGYGNSFGAWYQHHSSDVLASPQMM
B7: ZNF121, P58317 (protein)
chain: MAEIHNGGELCDFMENGEIFSEHSCLNAHMGTENTGDTYDCDEYGENFPMLHNSAPAGETLSVLNQCRKAFSLPPNVHQRTWIGDKSFEYSDCEEAFVDQSHLQANRITHNGETLYEQKQCGRAFTYSTSHAVSVKMHTVEKPYECKECGKFFRYSSYLNSHMRTHTGEKPYECKECGKCFTVSSHLVEHVRIHTGEKPYQCKECGRAFAGRSGLTKHVRIHTGEKPYECNECGKAYNRFYLLTEHFKTHTEEKPFECKVCGKSFRSSSCLKNHFRIHTGIKPYKCKECGKAFTVSSSLHNHVKIHTGEKPYECKDCGKAFATSSQLIEHIRTHTGEKPYICKECGKTFRASSHLQKHVRIHTGEKPYICNECGKAYNRFYLLTKHLKTH
B8: ZNF71, Q9NQZ8 (protein)
chain: MKELDPKNDISEDKLSVVGEATGGPTRNGARGPGSEGVWEPGSWPERPRGDAGAEWEPLGIPQGNKLLGGSVPACHELKAFANQGCVLVPPRLDDPTEKGACPPVRRGKNFSSTSDLSKPPMPCEEKKTYDCSECGKAFSRSSSLIKHQRIHTGEKPFECDTCGKHFIERSSLTIHQRVHTGEKPYACGDCGKAFSQRMNLTVHQRTHTGEKPYVCDVCGKAFRKTSSLTQHERIHTGEKPYACGDCGKAFSQNMHLIVHQRTHTGEKPYVCPECGRAFSQNMHLTEHQRTHTGEKPYACKECGKAFNKSSSLTLHQRNHTGEKPYVCGECGKAFSQSSYLIQHQRFHIGVKPFECSECGKAFSKNSSLTQHQRIHTGEKPYECYICKKHFTGRSSLIVHQIVHTGEKPYVCGECGKAFSQSAYLIEHQRIHTGEKPYRCGQCGKSFIKNSSLTVHQRIHTGEKPYRCGECGKTFSRNTNLTRHLRIHT
B9: NR4A2, P43354 (protein)
chain: MPCVQAQYGSSPQGASPASQSYSYHSSGEYSSDFLTPEFVKFSMDLTNTEITATTSLPSFSTFMDNYSTGYDVKPPCLYQMPLSGQQSSIKVEDIQMHNYQQHSHLPPQSEEMMPHSGSVYYKPSSPPTPTTPGFQVQHSPMWDDPGSLHNFHQNYVATTHMIEQRKTPVSRLSLFSFKQSPPGTPVSSCQMRFDGPLHVPMNPEPAGSHHVVDGQTFAVPNPIRKPASMGFPGLQIGHASQLLDTQVPSPPSRGSPSNEGLCAVCGDNAACQHYGVRTCEGCKGFFKRTVQKNAKYVCLANKNCPVDKRRRNRCQYCRFQKCLAVGMVKEVVRTDSLKGRRGRLPSKPKSPQEPSPPSPPVSLISALVRAHVDSNPAMTSLDYSRFQANPDYQMSGDDTQHIQQFYDLLTGSMEIIRGWAEKIPGFADLPKADQDLLFESAFLELFVLRLAYRSNPVEGKLIFCNGVVLHRLQCVRGFGEWIDSIVEFSSNLQNMNIDISAFSCIAALAMVTERHGLKEPKRVEELQNKIVNCLKDHVTFNNGGLNRPNYLSKLLGKLPELRTLCTQGLQRIFYLKLEDLVPPPAIIDKLFLDTLPF
B10: KLF11, O14901 (protein)
chain: MHTPDFAGPDDARAVDIMDICESILERKRHDSERSTCSILEQTDMEAVEALVCMSSWGQRSQKGDLLRIRPLTPVSDSGDVTTTVHMDAATPELPKDFHSLSTLCITPPQSPDLVEPSTRTPVSPQVTDSKACTATDVLQSSAVVARALSGGAERGLLGLEPVPSSPCRAKGTSVIRHTGESPAACFPTIQTPDCRLSDSREGEEQLLGHFETLQDTHLTDSLLSTNLVSCQPCLHKSGGLLLTDKGQQAGWPGAVQTCSPKNYENDLPRKTTPLISVSVPAPPVLCQMIPVTGQSSMLPAFLKPPPQLSVGTVRPILAQAAPAPQPVFVGPAVPQGAVMLVLPQGALPPPAPCAANVMAAGNTKLLPLAPAPVFITSSQNCVPQVDFSRRRNYVCSFPGCRKTYFKSSHLKAHLRTHTGEKPFNCSWDGCDKKFARSDELSRHRRTHTGEKKFVCPVCDRRFMRSDHLTKHARRHMTTKKIPGWQAEVGKLNRIASAESPGSPLVSMPASA
B11: IRF5, Q13568 (protein)
chain: MNQSIPVAPTPPRRVRLKPWLVAQVNSCQYPGLQWVNGEKKLFCIPWRHATRHGPSQDGDNTIFKAWAKETGKYTEGVDEADPAKWKANLRCALNKSRDFRLIYDGPRDMPPQPYKIYEVCSNGPAPTDSQPPEDYSFGAGEEEEEEEELQRMLPSLSLTEDVKWPPTLQPPTLRPPTLQPPTLQPPVVLGPPAPDPSPLAPPPGNPAGFRELLSEVLEPGPLPASLPPAGEQLLPDLLISPHMLPLTDLEIKFQYRGRPPRALTISNPHGCRLFYSQLEATQEQVELFGPISLEQVRFPSPEDIPSDKQRFYTNQLLDVLDRGLILQLQGQDLYAIRLCQCKVFWSGPCASAHDSCPNPIQREVKTKLFSLEHFLNELILFQKGQTNTPPPFEIFFCFGEEWPDRKPREKKLITVQVVPVAARLLLEMFSGELSWSADSIRLQISNPDLKDRMVEQFKELHHIWQSQQRLQPVAQAPPGAGLGVGQGPWPMHPAGMQ

The binders below were run against nucleoprotein N of Crimean-Congo hemorrhagic fever virus (assay: AlphaScreen luminescence signal relative to Venus negative control (fold); higher = stronger binding to CCHFV N).
Experimental: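 AlphaScreen binding of cell-free made, FLAG-GST-tagged human transcription factors and regulators (crude translation products) to biotinylated N protein; signal as fold of the FLAG-GST-Venus control. One pass.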
For B1, the AlphaScreen luminescence signal was 2.37.
For B2, the AlphaScreen luminescence signal was 2.74.
B3 was tested, and the AlphaScreen luminescence signal was 1.77.
For B4, the AlphaScreen luminescence signal was 3.91.
In the case of B5, the AlphaScreen luminescence signal is reported as 2.33.
For B6, the AlphaScreen luminescence signal was 2.7.
In the case of B7, the AlphaScreen luminescence signal is reported as 1.67.
In the case of B8, the AlphaScreen luminescence signal is reported as 1.35.
With B9 the AlphaScreen luminescence signal was 2.51.
In the case of B10, the AlphaScreen luminescence signal is reported as 1.91.
With B11 the AlphaScreen luminescence signal was 2.19.
